The record followed here is publication PMC4336329 (PLoS ONE, 2015).

Structures are written as SMILES. In all, about 310,000 compounds went through this assay and about 14,000 (4.5%) showed an effect of 50% or more. Effects have a minus sign here. The list shows a part of the results.
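Further: peak tail current of the secondary pulse compared with the same well before compound.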

Chain of human ether-à-go-go-related gene (hERG) potassium channel (Q12809 whole entry, looked up): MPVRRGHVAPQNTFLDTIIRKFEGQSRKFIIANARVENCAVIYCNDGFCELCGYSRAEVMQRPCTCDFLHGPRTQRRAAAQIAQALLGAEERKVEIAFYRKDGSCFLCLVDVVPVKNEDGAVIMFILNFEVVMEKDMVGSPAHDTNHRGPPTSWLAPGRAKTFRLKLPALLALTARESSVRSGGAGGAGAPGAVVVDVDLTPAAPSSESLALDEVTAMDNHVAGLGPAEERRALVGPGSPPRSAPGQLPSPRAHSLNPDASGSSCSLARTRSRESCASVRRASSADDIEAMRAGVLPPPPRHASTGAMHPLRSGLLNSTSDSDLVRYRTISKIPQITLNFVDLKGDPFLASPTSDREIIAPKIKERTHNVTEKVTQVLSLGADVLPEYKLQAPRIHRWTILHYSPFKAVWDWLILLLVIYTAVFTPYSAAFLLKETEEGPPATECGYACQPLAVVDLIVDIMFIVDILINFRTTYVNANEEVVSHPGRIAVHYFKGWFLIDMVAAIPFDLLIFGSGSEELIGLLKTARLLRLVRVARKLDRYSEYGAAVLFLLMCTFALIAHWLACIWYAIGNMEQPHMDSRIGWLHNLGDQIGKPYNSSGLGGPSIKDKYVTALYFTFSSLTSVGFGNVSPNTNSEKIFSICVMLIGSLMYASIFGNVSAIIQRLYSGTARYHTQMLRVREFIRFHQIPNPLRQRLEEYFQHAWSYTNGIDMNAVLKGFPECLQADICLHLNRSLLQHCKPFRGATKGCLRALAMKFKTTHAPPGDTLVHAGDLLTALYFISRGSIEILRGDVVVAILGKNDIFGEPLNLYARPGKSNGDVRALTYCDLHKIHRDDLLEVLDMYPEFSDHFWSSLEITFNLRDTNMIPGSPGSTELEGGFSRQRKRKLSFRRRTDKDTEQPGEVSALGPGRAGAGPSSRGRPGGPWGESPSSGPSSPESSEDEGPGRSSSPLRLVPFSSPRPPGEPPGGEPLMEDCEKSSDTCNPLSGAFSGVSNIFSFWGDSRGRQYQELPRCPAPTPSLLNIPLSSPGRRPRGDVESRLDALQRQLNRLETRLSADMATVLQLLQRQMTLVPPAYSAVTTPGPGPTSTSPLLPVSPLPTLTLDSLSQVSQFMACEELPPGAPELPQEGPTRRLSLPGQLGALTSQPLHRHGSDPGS

This test has as its target human ether-à-go-go-related gene (hERG) potassium channel (human, UniProt Q12809). As to the kind of experiment: primary screen, population patch clamp on CHO cells stably expressing hERG. The method, then:
Briefly, Chinese hamster ovary (CHO) cells stably expressing the hERG channel were dislodged from tissue culture flasks and dispensed into PPC plates. […] During the recording, background leak currents were estimated by a 100 ms step to -80 mV from an initial holding potential of -70 mV and subtracted from the subsequent current measurement. The campaign was conducted in two phases using slight differences in recording protocol. In the first phase, the initial voltage pulse used a 100 ms step to -30 mV from a holding potential of -70 mV, a 2 s conditioning step to +25 mV, and a 2 s test step to -30 mV. During the second phase of the screen, the potential during the conditioning step was raised to +45 mV. In both phases of the campaign, a secondary voltage pulse was applied using the same parameters as the second phase initial pulse. The initial and secondary pulses were applied in the absence of compound, and upon application of 1 μM and 10 μM test concentrations. […]
As for `CCOC(=O)c1sc2nc(Cc3ccc(Cl)cc3)[nH]c(=S)c2c1C`, the “hERG current change (%, negative = inhibition) at 10uM” value stood at 17.4%.
As for `CN(C)/C=C/C(=O)c1cccc(Cl)c1`, the figure is 0.271%; as for `COc1ccc(Cl)cc1NC(=O)C/C(C)=N/NC(=O)C(=O)NCc1ccccc1`, 6.82%.
Consider `Cc1ccc(SC(C)C(=O)NCc2cccnc2)cc1` (stereo not shown), for which the “hERG current change (%, negative = inhibition) at 10uM” value is given as 5.44%.
The result for `Nc1ccc(C(=O)N2CCN(S(=O)(=O)c3ccc4c(c3)OCCO4)CC2)cc1[N+](=O)[O-]` reads -17.3%; that for `CN(CC(=O)Nc1ccc(Cl)c(C(F)(F)F)c1)C(=O)c1cn2ccccc2n1`, -61.9%.
`NNC(=O)C1=NOC(CNc2ncc(C(F)(F)F)cc2Cl)C1` (stereo not shown): the “hERG current change (%, negative = inhibition) at 10uM” value was -4.21%.
As for `COc1ccc(CC(=O)NCc2nnc(SCc3ccc([N+](=O)[O-])cc3)n2C)cc1`, the figure is -63.6%.
As for `Nc1ncn(-c2ncc(C(F)(F)F)cc2Cl)n1`, the figure is 11.6%.
As for `O=C(CN1C(=O)S/C(=C\c2ccc(Cl)cc2)C1=O)NC1C=CS(=O)(=O)C1` (stereo not shown), the figure is 8.1%.
For `COc1cc(/C=C(\C#N)c2ccccn2)cc(OC)c1O`, the “hERG current change (%, negative = inhibition) at 10uM” value amounted to 21%.
On to `O=[N+]([O-])c1cccc(/C=N/n2c(-c3cccnc3)n[nH]c2=S)c1`, for which the “hERG current change (%, negative = inhibition) at 10uM” value is recorded as 9.54%.
The result for `O=C(c1ccc2c3n(nc2c1)-c1ccccc1CO3)N1CCCCC1` reads -4.84%; that for `C=CCNC(=O)C1CC(=O)N(c2ccc(OCC(=O)Nc3ccc(CC)cc3)cc2)C1` (stereo not shown), 14.6%.
Take `CCN(CC)c1ccc(NC(=O)c2nc3nc(C)cc(C(F)F)n3n2)cc1`: the “hERG current change (%, negative = inhibition) at 10uM” value was -37%.
Consider `CC(O)Cc1nsc(NC(=O)c2cccs2)n1` (stereo not shown), for which the “hERG current change (%, negative = inhibition) at 10uM” value is on record as 10.1%.
The result for `CC(NS(=O)(=O)c1ccc(F)cc1)C(=O)NCc1ccncc1` (stereo not shown) reads 0.651%.
In the case of `COc1ccc(NC(=O)c2cc(Br)ccc2Cl)c([N+](=O)[O-])c1`, the “hERG current change (%, negative = inhibition) at 10uM” value is reported as 9.83%.
For `S=C(NCc1ccccc1)NNc1nc2ccccc2[nH]1`, the “hERG current change (%, negative = inhibition) at 10uM” value was 11.3%.
As for `Cc1ccnc(NS(=O)(=O)c2cc(-c3cc(C)no3)ccc2C(C)C)c1`, the “hERG current change (%, negative = inhibition) at 10uM” value amounted to 4.62%.
As for `Cc1cc(C(=O)COC(=O)Cn2cnc3c2c(=O)n(C)c(=O)n3C)c(C)n1C`, the figure is 11.8%; as for `COC(=O)c1cc(-c2ccc3c(c2)OCO3)nc2ccccc12`, 13.1%; as for `CC(C)CNC(=S)NC1CC2CCC(C1)N2Cc1ccccc1` (stereo not shown), -35.6%.
The result for `CCC(C)[C@H](NC(=O)[C@@H]1Cc2c([nH]c3ccccc23)C2c3ccccc3C(=O)N21)C(=O)N1CCC[C@@H]1C(=O)O` (stereo partly shown) reads 0.753%; that for `O=C(Cc1cc(=O)oc2cc(O)ccc12)NCC1CCC(C(=O)O)CC1` (stereo not shown), 5.64%; that for `CCOCCCNC(=O)C1(O)c2ccccc2NC(=O)N1c1ccc(C)c(C)c1` (stereo not shown), 16.6%.
As for `CCCS(=O)(=O)N1CCCC(C(=O)c2ccccc2OC)C1` (stereo not shown), the figure is -2.75%; as for `CCCN1CCN(C(=O)CCNC(=O)Cn2cnc3ccccc3c2=O)CC1`, 15%; as for `O=C(Cn1c(=O)oc2ccc(Cl)cc21)Nc1ccon1`, 17.4%.
With `O=[N+]([O-])c1cc(Cl)ccc1NCCc1ccccn1`, the “hERG current change (%, negative = inhibition) at 10uM” value is -16.8%.
As for `Cc1noc(C)c1C(c1ccccc1)S(=O)(=O)c1ccccc1` (stereo not shown), the figure is -0.632%; as for `Cc1cc(/C=C2\SC(=Nc3ccc(N4CCOCC4)cc3)N(C)C2=O)c(C)n1-c1cccnc1`, 11.3%; as for `CCCCn1c(N)c(N(CC(C)C)C(=O)c2ccc(S(=O)(=O)N3CCCCCC3)cc2)c(=O)[nH]c1=O`, 9.58%.
As for `Cc1ccc(NC(=S)NCc2cccs2)cc1`, the figure is -3.09%.
On to `COC(=O)c1cc(=O)n(Cc2ccc3c(c2)OCO3)c(=Nc2ccccc2)s1`, for which the “hERG current change (%, negative = inhibition) at 10uM” value was found to be 10.4%.
Consider `CC1CCN(C(=O)c2ccc(NS(=O)(=O)c3ccc4[nH]c(=O)[nH]c4c3)cc2)CC1`, for which the “hERG current change (%, negative = inhibition) at 10uM” value worked out at 5.52%.
On to `COc1ccc(-c2cc(C)no2)cc1S(=O)(=O)N1CCCN(Cc2ccccc2Cl)C1`, for which the “hERG current change (%, negative = inhibition) at 10uM” value is reported as -3.69%.
Consider `COc1ccccc1CNC(=O)c1ccc(CS(=O)Cc2cccc(Cl)c2)o1` (stereo not shown), for which the “hERG current change (%, negative = inhibition) at 10uM” value is -17.1%.
For `O=c1[nH]c(C2CCN(S(=O)(=O)Cc3ccccc3)CC2)nc2c1nnn2Cc1ccccc1`, the “hERG current change (%, negative = inhibition) at 10uM” value was -11.3%.
In the case of `C/C(=N\NC(=S)NCc1ccccc1)c1ccc(C#N)cc1`, the “hERG current change (%, negative = inhibition) at 10uM” value turned out to be 19.9%.
In the case of `Cc1nc(CNS(=O)(=O)c2ccc3ccccc3c2)cs1`, the “hERG current change (%, negative = inhibition) at 10uM” value is given as -0.157%.
The result for `CCN(C(=O)COC(=O)c1ccco1)c1c(N)n(Cc2ccccc2)c(=O)[nH]c1=O` reads -0.805%; that for `CC(C)CC(=O)c1c[nH]c(C(=O)NCc2cccs2)c1`, -4.66%.
The result for `O=C(CCCOc1ccc(Cl)cc1)N1CCOCC1` reads -5.67%.
In the case of `CCC(C)c1ccc(NS(=O)(=O)c2c(C)[nH]c(=O)[nH]c2=O)cc1` (stereo not shown), the “hERG current change (%, negative = inhibition) at 10uM” value is -0.529%.
For the compound `C=CCn1c(=O)c(C(=O)NCc2ccc3c(c2)OCO3)c(O)c2cc(OC)c(OC)cc21`, the “hERG current change (%, negative = inhibition) at 10uM” value is 10.3%.
Consider `CC1(C)CC(=O)C2=C(C1)OC1=C(C(=O)CC(C)(C)C1)C2c1ccc(O)cc1O`, for which the “hERG current change (%, negative = inhibition) at 10uM” value is given as -10.9%.
The result for `CC(=O)c1ccc(S(=O)(=O)N(C)CC(=O)NCC2CCCCC2)cc1` reads -6.21%; that for `O=C(OCC(=O)N1CCCc2ccccc21)c1cc(S(=O)(=O)N2CCOCC2)ccc1O`, -40.3%; that for `Cc1ccc(C(=O)NNC2=NC(C)(C)Cc3ccccc32)cc1.Cl`, -4.09%.
The result for `OC1C[N+]2(CCCCC2)C1.[Cl-]` reads 2.27%; that for `CN(c1cccc(NC(=O)c2ccccc2N(C)S(=O)(=O)c2ccccc2)c1)S(C)(=O)=O`, 12.9%; that for `O=C(COC(=O)c1cccc(O)c1)NC(=O)Cc1ccccc1`, 3.25%.
The result for `COc1ccccc1NS(=O)(=O)c1ccc(S(=O)(=O)N2CCOCC2)cc1` reads -10.8%; that for `OC(CNCCc1ccccc1)COc1ccc(OCC(O)CNCCc2ccccc2)cc1` (stereo not shown), 1.24%.
